PubChem BioAssay AID485364 (National Center for Advancing Translational Sciences (NCATS), 2010)
Hit rate of the full screen: of about 360,000 compounds, about 11,000 (3.1%) were called active. Inconclusive means that the source gave no clear call. Such entries were picked first, then a sample of the others. Calls come from the whole dose curve; as a rule, active = well fitted inhibition curve with a large enough effect; inconclusive = small, poorly fitted or top-dose-only effect; inactive = no such curve, though single readings can be large or run the other way. No potency is given beside an inconclusive call; the fits are too rough.

The molecules below were run against Schistosoma mansoni thioredoxin glutathione reductase (TGR) (UniProt Q962Y6) (assay: qHTS Assay for the Inhibitors of Schistosoma Mansoni Peroxiredoxins). Settings: purified TGR, DTNB reduction, TNB absorbance 405 nm; activity change, negative = inhibition: at 114 µM (top of the series) unless noted.
Outline: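 Kinetic colorimetric format: TGR-catalysed, NADPH-driven DTNB reduction monitored via TNB absorbance. Enzyme dispensed at 20 nM; compound exposure 15 min at room temperature before reaction start.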
% is set by controls: 0 for no effect and ±100 for the full control effect; potency is the fitted concentration of half-maximal effect; tags give direction and shape of the fitted curve.
Note: nearly all actives have a fitted effect of over 60% in size.

| SMILES | activity change, negative = inhibition | Potency |
| --- | --- | --- |
| COc1ccc(-c2[nH]c(-c3ccc(F)cc3)nc2SCC(=O)Nc2ccc(OC)c(OC)c2)cc1 | inactive: 5.89% |  |
| O=C(CSc1nncs1)N1CCN(C(=O)c2ccco2)CC1 |  | inconclusive [inhibitor, partial curve] |
| COc1ccc(CCN(C)C2CCCN(C(=O)Cn3cccn3)C2)cc1OC (stereo not drawn) |  | inconclusive [inhibitor, full curve, poor fit] |
| COc1cccc(C(=O)C2CCCN(C/C=C/c3ccccc3OC)C2)c1 (stereo not drawn) |  | inconclusive [inhibitor, full curve, poor fit] |
| CCSc1oc(-c2cccs2)nc1S(=O)(=O)c1ccccc1 | inactive: -31.2% |  |
| COc1ccc(CN2CCNC(=O)C2CC(=O)NCc2cc(C)n(C)n2)c(F)c1 (stereo not drawn) |  | active: 20 µM |
| O=C(NC(=S)Nc1cccc2ncccc12)c1ccccc1 |  | active: 8.91 µM |
| Cc1ccc(S(=O)(=O)N2CCN(Cc3nc4ccccc4n3C)CC2)cc1 |  | inconclusive [inhibitor, partial curve] |
| Cc1cc(C(=O)Nc2sccc2C#N)c2ccccc2n1 |  | inconclusive [inhibitor, partial curve] |
| O=C(Nc1ccc(F)cc1)Nc1cnccn1 |  | inconclusive [inhibitor, single point] |
| Cc1ncc(CO)c2c1Oc1nc(-c3ccccc3F)nc(SCC(=O)N3CCCCC3)c1C2 |  | inconclusive [inhibitor, partial curve] |
| COc1ccc(Br)cc1CNc1ccc2[nH]c(=O)[nH]c2c1 |  | inconclusive [inhibitor, partial curve] |
| CC(C)(C)OC(=O)NCC(=O)Oc1cc2oc(=O)cc(-c3ccccc3)c2cc1Cl |  | inconclusive [inhibitor, partial curve] |
| CCOc1cc(C(=O)Nc2cc(C)ccn2)cc(OCC)c1OCC | inactive: -8.78% |  |
| CC(=O)NCCC(=O)NCc1ccc(F)cc1 | inactive: -1.02% |  |
| O=C1c2ccccc2C(=O)N1COc1ccc(S(=O)(=O)N2CCOCC2)cc1[N+](=O)[O-] |  | inconclusive [inhibitor, partial curve] |
| Nc1cc(OC(=O)c2cccs2)nn1S(=O)(=O)c1ccc(F)cc1 |  | inconclusive [inhibitor, full curve, poor fit] |
| Cc1ccc(S(=O)(=O)NCCSCc2ccco2)cc1 |  | inconclusive [inhibitor, partial curve] |
| O=C(N/N=C/c1ccncc1)c1cc([N+](=O)[O-])cc([N+](=O)[O-])c1O |  | inconclusive [inhibitor, full curve, poor fit] |
| CCn1cc(NC(=O)CCl)c(C)n1 |  | inconclusive [inhibitor, full curve] |
| O=C(CCc1nc2ccccc2c(=O)[nH]1)Nc1cc(Cl)ccc1N1CCCCC1 | inactive: -0.441% |  |
| CCCCc1c(C)nn(-c2nnc3c4ccccc4n(C)c3n2)c1C |  | inconclusive [inhibitor, full curve, poor fit] |
| C1CC(CN2CCOCC2)CN(c2nc3nonc3nc2N2CCSCC2)C1 (stereo not drawn) |  | inconclusive [inhibitor, single point] |
| Cc1ccc(NC(=O)Cc2nc(COC(=O)C(C)NS(=O)(=O)c3ccc(C)cc3)cs2)cc1 (stereo not drawn) |  | inconclusive [inhibitor, partial curve] |
| CCOC(=O)C1=C(Cc2ccc(Cl)cc2)C(=O)c2ccccc2C1=O |  | active: 3.55 µM |

| SMILES | activity change, negative = inhibition | Potency |
| --- | --- | --- |
| O=C(CSc1nc2ccccc2[nH]1)c1ccc2c(c1)OCO2 | inactive: -6.93% |  |
| COc1cccc2sc(N(CCCN(C)C)C(=O)c3ccc(S(=O)(=O)N4CCCc5ccccc54)cc3)nc12 | inactive: 2.95% |  |
| COc1cccc(CN2CCN(C3CCN(c4cccc(C)c4C)CC3)CC2CCO)c1 (stereo not drawn) |  | inconclusive [inhibitor, single point] |
| CC(OC(=O)c1ccc(NC(=O)CC#N)cc1)C(=O)NC(=O)NC1CCCCC1 (stereo not drawn) | inactive: -0.695% |  |
| C/C(CC(=O)Nc1ccccn1)=N\NC(=O)c1cnccn1 | inactive: 16.3% |  |
| COCCCN1C(=O)/C(=C\c2cccs2)C(C(=O)OC)=C1C |  | inconclusive [inhibitor, full curve, poor fit] |
| Cc1cc(NC(=O)CSc2sc3c(O)cc(=O)[nH]c3c2C#N)ccc1Br |  | inconclusive [inhibitor, partial curve] |
| COc1ccc(CNC(=O)C(c2cccs2)N(Cc2ccco2)C(=O)Cc2cccs2)cc1 (stereo not drawn) |  | active: 28.2 µM |
| CCCC(=O)Nc1ccc(Sc2ccc([N+](=O)[O-])cc2)cc1 |  | inconclusive [inhibitor, single point] |
| COc1ccc(NC(=O)CCSc2nc(-c3ccco3)cc(C(F)(F)F)n2)cc1OC | inactive: -7.45% |  |
| Cc1cc(-c2ccc(C(C)C)c(S(=O)(=O)NCc3ccco3)c2)on1 |  | inconclusive [inhibitor, partial curve] |
| CN(C)C(=O)c1c(NC(=O)c2ccco2)sc2c1CCCCC2 |  | inconclusive [inhibitor, partial curve] |
| O=C(NNc1ccc([N+](=O)[O-])cc1)Nc1ccccc1 |  | inconclusive [inhibitor, partial curve] |
| CC(C)C[C@@H](C)C(=O)N(Cc1ccccc1)c1ccccc1 | inactive: 2.89% |  |
| COc1ccccc1NC(=O)C1=C(C)Nc2nc(SCc3ccccc3Cl)nn2C1c1ccncc1 (stereo not drawn) | inactive: -11% |  |
| Cc1nc(NS(=O)(=O)c2ccccc2)sc1NC(=O)OCCN(C)C |  | active: 31.6 µM |
| O=C1C([N+](=O)[O-])=C(O)c2cccc3cccc1c23 |  | active: 39.8 µM |
| C=CCN1C(=O)/C(=c2\sc3nc(=O)c(Cc4ccc(OC)c(OC)c4)nn3c2=O)c2ccccc21 |  | active: 0.631 µM |
| COc1ccc(CCc2cc(OC)cc(=O)o2)cc1 | inactive: 5.46% |  |
| CCCC(C(=O)N(C)CC(=O)Nc1ccc(N2CCOCC2)cc1)c1ccccc1 (stereo not drawn) |  | inconclusive [inhibitor, partial curve] |
| Cc1ccc([N+](=O)[O-])cc1S(=O)(=O)N1CCCN(C)CC1 |  | inconclusive [inhibitor, partial curve] |
| N#Cc1cc(Sc2ccccn2)c([N+](=O)[O-])cc1C#N |  | active: 35.5 µM |
| CC(C)(C)NC(=O)C(c1cccs1)N(Cc1ccco1)C(=O)c1csnn1 (stereo not drawn) |  | inconclusive [inhibitor, partial curve] |
| O=C(c1cccc(Cl)c1)C1CCCN(C(=O)c2ccoc2)C1 (stereo not drawn) | inactive: -13.9% |  |
| O=C(Nc1ccc(N2CCN(C(=O)c3ccccc3)CC2)c(Cl)c1)c1ccco1 |  | inconclusive [inhibitor, partial curve] |

| SMILES | activity change, negative = inhibition | Potency |
| --- | --- | --- |
| COc1ccccc1N(O)C1CC(=O)N(c2ccc(Br)cc2)C1=O (stereo not drawn) |  | active: 2.82 µM |
| CC(C)(C)C(=O)Cn1ncc(Cl)c(Cl)c1=O |  | active: 39.8 µM |
| FC(F)(F)c1ccc(-c2nnc(-c3cccnc3)o2)cc1 | inactive: 1.09% |  |
| O=C(Cn1c(C(F)(F)F)nc2ccccc21)Oc1cccc(C(F)(F)F)c1 |  | inconclusive [inhibitor, single point] |
| CC(=O)c1ccc(N2CCN(C(=O)c3cccs3)CC2)c(F)c1 |  | inconclusive [inhibitor, partial curve] |
| Cc1ccc2[nH]c(=O)c(CN(Cc3ccco3)S(=O)(=O)c3c(C)ccc4nsnc34)cc2c1 |  | active: 28.2 µM |
| COc1ccc(S(=O)(=O)n2nc(OC(=O)c3ccccc3Br)cc2N)cc1 |  | inconclusive [inhibitor, full curve, poor fit] |
| Cc1ccc2c(c1)N(CC(=O)N1CCN(C3CCCCC3)CC1)C(=O)CO2 |  | inconclusive [inhibitor, full curve] |
| CCOc1ccc(CN2CCNC(=O)C2CC(=O)NCCN2CCOC2=O)cc1 (stereo not drawn) |  | inconclusive [inhibitor, partial curve] |
| Cc1occc1C(=O)NCc1ccccn1 |  | inconclusive [inhibitor, partial curve] |
| CCOC(=O)c1cc2c(=O)n3cccc(C)c3nc2n(C)c1=N | inactive: 0% |  |
| Cc1cc(NC(=O)COC(=O)C2=COCCO2)c([N+](=O)[O-])cc1C | inactive: 1.86% |  |
| O=C(NCC1CCCO1)C(c1ccncc1)N(Cc1cccs1)C(=O)Cn1nnc(-c2ccc(F)cc2)n1 (stereo not drawn) | inactive: 10.7% |  |
| CCc1nnc(NS(=O)(=O)c2ccc(NC(=S)NC(=O)c3cccs3)cc2)s1 |  | inconclusive [inhibitor, full curve] |
| Cc1nnc(NC(=O)CCCCCN2C(=O)C3C4C=CC(C4)C3C2=O)s1 (stereo not drawn) | inactive: -0.35% |  |
| Cc1ccc(/C=C2/C(=O)c3ccc(C(=O)O)cc3C2=O)o1 |  | active: 5.01 µM |
| Cc1ccc(O)c(NC(=O)CCS(=O)(=O)c2nc(-c3ccc4c(c3)OCO4)cc(C(F)(F)F)n2)c1 |  | inconclusive [inhibitor, full curve] |
| COc1ccc(-c2c(C#Cc3ccsc3)c3ccccc3n2C)cc1 |  | active: 20 µM |
| COc1ccc(S(=O)(=O)N(CC(=O)Nc2cccnc2)c2ccc(C)cc2)cc1OC |  | inconclusive [inhibitor, single point] |
| CCc1ccc(-n2c(CCC(=O)O)ccc2-c2ccc(F)cc2)cc1 |  | inconclusive [inhibitor, partial curve] |
| CC(=O)Oc1cccc(N2C(=O)c3ccc(C(=O)O)cc3C2=O)c1 | inactive: 0.236% |  |
| O=C(NC(=S)N1CCCc2ccccc21)c1ccco1 |  | active: 28.2 µM |
| c1ccc(Nc2nc(N3CCCCC3)nc(N3CCCCC3)n2)cc1 |  | inconclusive [inhibitor, full curve, poor fit] |
